Experimental data from the supplement of paper PMC12217912.
This is one part of the list. The full chains were built here from the parent and the listed change. Values near 0.05 are background.

B1: TEV protease; numbered along this chain (parent)
chain: MGESLFKGPRDYNPISSSICHLTNESDGHTTSLYGIGFGPFIITNKHLFRRNNGTLVVQSLHGVFKVKDTTTLQQHLVDGRDMIIIRMPKDFPPFPQKLKFREPQREERICLVTTNFQTKSMSSMVSDTSCTFPSGDGIFWKHWIQTKDGQCGSPLVSTRDGFIVGIHSASNFTNTNNYFTSVPKNFMELLTNQEAQQWVSGWRLNADSVLWGGHKVFMVKPEEPFQPVKEATQL

Variants of: B1
Test: raw area under fraction-flipped curve 0-4 h after induction (AUC4h, not background-subtracted), DNA-recorder readout of cleavage of the substrate (dimensionless); higher = more cleavage of the substrate by the protease variant
Settings: temperature: 34 °C; time window: 0-4 h after rhamnose induction
Description: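 In vivo DNA recorder in E. coli TOP10(DE3) ΔrhaA at 34 °C. Each TEVp single-site mutant (parent TEVp 0) is paired with a single-site variant of the 7-mer TEVs (canonical ENLYFQ|S). The substrate sits between flexible linkers in a Bxb1-sfGFP-TEVs-SsrA fusion, so cleavage stabilises Bxb1 and speeds flipping of a recombination array, read by NGS. The value is the raw area under the fraction-flipped curve over 0-4 h after rhamnose induction (AUC4h), with ≥20 reads per time point. It is not background-subtracted; inactive controls average about 0.047.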
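Note: Bxb1 expression induced with 0.2% (w/v) L-rhamnose at OD600 near 0.5, cultures sampled hourly, flipped fraction per protease–substrate barcode pair counted by paired-end Illumina sequencing.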

Variant | area with substrate CNLYFQS | area with substrate DNLYFQS | area with substrate FNLYFQS | area with substrate GNLYFQS | area with substrate HNLYFQS | area with substrate INLYFQS | area with substrate LNLYFQS | area with substrate PNLYFQS | area with substrate SNLYFQS | area with substrate TNLYFQS | area with substrate VNLYFQS | area with substrate WNLYFQS | area with substrate KNLYFQS | area with substrate MNLYFQS | area with substrate QNLYFQS | area with substrate YNLYFQS | area with substrate NNLYFQS | area with substrate RNLYFQS
L22Y | 0.0528 | 0.0638 | 0.0422 | 0.0491 | 0.0463 | 0.062 | 0.0545 | 0.0405 | 0.0584 | 0.0484 | 0.0457 | 0.0409 | – | – | – | – | – | –
P89Y | 0.0692 | 0.0673 | – | 0.063 | 0.0574 | 0.0502 | 0.0572 | 0.0529 | 0.0508 | 0.0549 | – | 0.0412 | 0.054 | 0.0422 | 0.0517 | 0.0409 | – | –
D69S | 0.0691 | 0.0546 | 0.0673 | – | 0.0559 | 0.0607 | 0.0572 | 0.0567 | 0.0608 | 0.0534 | 0.0591 | 0.0575 | 0.0506 | 0.0464 | – | 0.0568 | 0.0674 | 0.0795
S171C | 0.0735 | 0.0441 | – | 0.0328 | – | – | – | 0.0633 | 0.0388 | 0.0548 | – | 0.0586 | – | 0.0465 | 0.062 | 0.0652 | 0.0364 | 0.0669
V165P | 0.0384 | 0.0477 | – | 0.0514 | 0.0565 | – | 0.057 | 0.0534 | – | 0.0669 | – | 0.0548 | 0.0513 | – | – | 0.0534 | 0.0632 | 0.0502
F49Q | 0.0488 | 0.0512 | 0.056 | – | 0.0558 | 0.0538 | – | – | 0.0621 | 0.0576 | 0.0585 | 0.044 | 0.0699 | – | – | 0.0544 | 0.0543 | 0.0603
E223N | 0.0837 | 0.0859 | 0.0661 | 0.0743 | 0.0667 | – | 0.0684 | – | 0.0537 | 0.0673 | – | 0.0631 | 0.0722 | 0.0601 | – | – | 0.076 | 0.0657
F226Q | 0.12 | 0.137 | 0.047 | 0.0838 | 0.0598 | – | 0.0673 | – | 0.0678 | 0.0603 | – | 0.0565 | 0.0822 | 0.0642 | 0.0596 | 0.0768 | 0.0583 | –
M122V | 0.0665 | 0.0761 | – | – | 0.0694 | – | 0.0571 | 0.0614 | – | 0.0614 | – | 0.05 | – | 0.0696 | 0.0469 | – | – | –
M122I | 0.0618 | 0.0745 | – | – | 0.0475 | 0.0908 | – | – | 0.0534 | 0.0539 | – | 0.0597 | – | 0.0787 | – | 0.0557 | 0.0617 | –
L156R | 0.0504 | 0.0685 | 0.048 | 0.0461 | 0.0399 | – | 0.0528 | 0.05 | – | 0.0589 | – | 0.0489 | 0.0383 | – | – | 0.0545 | 0.0581 | –
D79K | 0.0437 | 0.09 | 0.06 | 0.0688 | – | – | 0.0555 | – | 0.0733 | 0.0664 | – | 0.0941 | – | 0.0671 | – | 0.0677 | 0.0609 | –
